The text below walks through data of patent publication US20240076343A1.

For experiment [1], the target named is high-affinity hIL-2 receptor (IL-2Rαβγ) (human) (UniProt P01589). Briefly: cell-based or functional assay.
In experiment [2] the target is intermediate affinity hIL-2 receptor complex (IL-2Rβγ) (human) (UniProt P14784). Nature of the experiment: cell-based or functional assay.
Chain of UniProt P14784 (P14784 27-551, chain 1 of 2): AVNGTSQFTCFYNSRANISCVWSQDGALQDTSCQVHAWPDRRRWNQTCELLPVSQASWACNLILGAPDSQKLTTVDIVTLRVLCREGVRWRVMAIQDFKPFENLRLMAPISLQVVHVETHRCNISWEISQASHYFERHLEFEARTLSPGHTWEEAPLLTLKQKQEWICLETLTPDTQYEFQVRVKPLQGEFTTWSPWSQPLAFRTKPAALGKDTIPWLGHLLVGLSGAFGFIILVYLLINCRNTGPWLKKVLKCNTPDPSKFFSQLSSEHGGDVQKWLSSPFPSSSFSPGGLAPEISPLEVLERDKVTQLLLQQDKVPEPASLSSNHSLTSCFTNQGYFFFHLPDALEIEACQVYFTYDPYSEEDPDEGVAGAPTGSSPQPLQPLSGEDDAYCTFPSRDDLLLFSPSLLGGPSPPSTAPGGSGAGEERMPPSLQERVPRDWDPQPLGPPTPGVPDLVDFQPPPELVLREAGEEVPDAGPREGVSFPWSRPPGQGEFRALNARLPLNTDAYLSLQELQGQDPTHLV
Chain of UniProt P14784 (chain, as listed by the source, chain 2 of 2): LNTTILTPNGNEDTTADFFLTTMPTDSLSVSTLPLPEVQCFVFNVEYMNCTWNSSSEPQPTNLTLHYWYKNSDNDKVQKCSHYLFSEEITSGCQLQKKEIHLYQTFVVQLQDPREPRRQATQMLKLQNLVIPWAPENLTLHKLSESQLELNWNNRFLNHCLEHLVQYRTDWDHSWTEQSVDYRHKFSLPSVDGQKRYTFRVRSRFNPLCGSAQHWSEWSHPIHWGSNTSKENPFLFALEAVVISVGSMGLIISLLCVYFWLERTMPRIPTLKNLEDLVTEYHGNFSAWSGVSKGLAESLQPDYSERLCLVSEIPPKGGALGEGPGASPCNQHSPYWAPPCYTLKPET

Chain of UniProt P01589 (P01589 22-272, chain 1 of 3): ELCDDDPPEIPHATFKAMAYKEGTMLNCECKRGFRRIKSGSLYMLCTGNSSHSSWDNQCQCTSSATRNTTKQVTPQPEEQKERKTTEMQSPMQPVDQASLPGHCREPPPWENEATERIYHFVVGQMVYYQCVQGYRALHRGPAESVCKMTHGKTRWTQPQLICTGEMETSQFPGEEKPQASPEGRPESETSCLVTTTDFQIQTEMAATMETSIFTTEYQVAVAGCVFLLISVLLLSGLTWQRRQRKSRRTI
Chain of UniProt P01589 (chain, as listed by the source, chain 2 of 3): as the sequence (P14784 27-551, chain 1 of 2) above
Chain of UniProt P01589 (chain, as listed by the source, chain 3 of 3): as the sequence (chain, as listed by the source, chain 2 of 2) above

B1: 1H3-hIgG1-L6-hIL-2 (R38E/D84N) (protein)
heavy: EVQLVESGGGLVQPGRSLKLSCAVSGFTFSDYAMAWVRQAPKKGLEWVATISYDGSRTYYRDSVKGRFTISRDNAKITLYLQMDSLRSEDTATYYCARHGSGYFDYWGQGVMVTVSS[not shown - about 450 residues with a human IgG1 Fc and changes]
light: DTVLTQSPALAVSPGERVTISCRASESVRTGVHWYQQKPGQQPKLLIYGASNLESGVPARFSGSGSGTDFTLTIDPVEADDTATYFCQQSWNDPFTFGSGTKLEIKRTVAAPSVFIFPPSDEQLKSGTASVVCLLNNFYPREAKVQWKVDNALQSGNSQESVTEQDSKDSTYSLSSTLTLSKADYEKHKVYACEVTHQGLSSPVTKSFNRGEC
Regarding B1, the Fold change from hIL-2 (NK-92), pSTAT5 fixed conc. in experiment [1] was 18 fold. Further, the Fold change from hIL-2 (TF1 + IL-2Rβ), pSTAT5 fixed conc. in experiment [2] turned out to be 1 fold.

B2: 1H3-hIgG1-L6-hIL-2 (R38E/D84S) (protein)
heavy: EVQLVESGGGLVQPGRSLKLSCAVSGFTFSDYAMAWVRQAPKKGLEWVATISYDGSRTYYRDSVKGRFTISRDNAKITLYLQMDSLRSEDTATYYCARHGSGYFDYWGQGVMVTVSS[not shown - about 450 residues with a human IgG1 Fc and changes]
light: B1 light
In experiment [1], B2 returned a Fold change from hIL-2 (NK-92), pSTAT5 fixed conc. of 21 fold. Also, in experiment [2], the Fold change from hIL-2 (TF1 + IL-2Rβ), pSTAT5 fixed conc. was found to be 1 fold.

B3: 1H3-hIgG1-L6-hIL-2 (R38E/I92A) (protein)
heavy: EVQLVESGGGLVQPGRSLKLSCAVSGFTFSDYAMAWVRQAPKKGLEWVATISYDGSRTYYRDSVKGRFTISRDNAKITLYLQMDSLRSEDTATYYCARHGSGYFDYWGQGVMVTVSS[not shown - about 450 residues with a human IgG1 Fc and changes]
light: B1 light
B3: the Fold change from hIL-2 (NK-92), pSTAT5 fixed conc. in experiment [1] came out at 22 fold. The Fold change from hIL-2 (TF1 + IL-2Rβ), pSTAT5 fixed conc. in experiment [2] was found to be 1 fold.

B4: 1H3-hIgG1-L6-hIL-2 (R38E/I92W) (protein)
heavy: EVQLVESGGGLVQPGRSLKLSCAVSGFTFSDYAMAWVRQAPKKGLEWVATISYDGSRTYYRDSVKGRFTISRDNAKITLYLQMDSLRSEDTATYYCARHGSGYFDYWGQGVMVTVSS[not shown - about 450 residues with a human IgG1 Fc and changes]
light: B1 light
Consider B4, for which the Fold change from hIL-2 (NK-92), pSTAT5 fixed conc. in experiment [1] was determined as 23 fold. Also, the Fold change from hIL-2 (TF1 + IL-2Rβ), pSTAT5 fixed conc. in experiment [2] was 1 fold.

B5: 1H3-hIgG1-L6-hIL-2 (R38E/I92L) (protein)
heavy: EVQLVESGGGLVQPGRSLKLSCAVSGFTFSDYAMAWVRQAPKKGLEWVATISYDGSRTYYRDSVKGRFTISRDNAKITLYLQMDSLRSEDTATYYCARHGSGYFDYWGQGVMVTVSS[not shown - about 450 residues with a human IgG1 Fc and changes]
light: B1 light
In turn, B5 returned a Fold change from hIL-2 (NK-92), pSTAT5 fixed conc. in experiment [1] of 17 fold. For the same molecule, in experiment [2], the Fold change from hIL-2 (TF1 + IL-2Rβ), pSTAT5 fixed conc. turned out to be 1 fold.

B6: 1H3-hIgG1-L6-hIL-2 (R38E/D84T) (protein)
heavy: EVQLVESGGGLVQPGRSLKLSCAVSGFTFSDYAMAWVRQAPKKGLEWVATISYDGSRTYYRDSVKGRFTISRDNAKITLYLQMDSLRSEDTATYYCARHGSGYFDYWGQGVMVTVSS[not shown - about 450 residues with a human IgG1 Fc and changes]
light: B1 light
As for B6, the Fold change from hIL-2 (NK-92), pSTAT5 fixed conc. in experiment [1] is 20 fold. In experiment [2], the Fold change from hIL-2 (TF1 + IL-2Rβ), pSTAT5 fixed conc. worked out at 1 fold.

B7: 1H3-hIgG1-L6-hIL-2 (R38E/I92H) (protein)
heavy: EVQLVESGGGLVQPGRSLKLSCAVSGFTFSDYAMAWVRQAPKKGLEWVATISYDGSRTYYRDSVKGRFTISRDNAKITLYLQMDSLRSEDTATYYCARHGSGYFDYWGQGVMVTVSS[not shown - about 450 residues with a human IgG1 Fc and changes]
light: B1 light
Turning to B7, the Fold change from hIL-2 (NK-92), pSTAT5 fixed conc. in experiment [1] was 21 fold. Further, the Fold change from hIL-2 (TF1 + IL-2Rβ), pSTAT5 fixed conc. in experiment [2] came to 1 fold.

B8: 1H3-hIgG1-L6-hIL-2 (R38E/D84V) (protein)
heavy: EVQLVESGGGLVQPGRSLKLSCAVSGFTFSDYAMAWVRQAPKKGLEWVATISYDGSRTYYRDSVKGRFTISRDNAKITLYLQMDSLRSEDTATYYCARHGSGYFDYWGQGVMVTVSS[not shown - about 450 residues with a human IgG1 Fc and changes]
light: B1 light
B8 displayed a Fold change from hIL-2 (NK-92), pSTAT5 fixed conc. in experiment [1] of 22 fold. Besides, the Fold change from hIL-2 (TF1 + IL-2Rβ), pSTAT5 fixed conc. in experiment [2] came to 1 fold.

B9: 1H3-hIgG1-L6-hIL-2 (R38E/I92T) (protein)
heavy: EVQLVESGGGLVQPGRSLKLSCAVSGFTFSDYAMAWVRQAPKKGLEWVATISYDGSRTYYRDSVKGRFTISRDNAKITLYLQMDSLRSEDTATYYCARHGSGYFDYWGQGVMVTVSS[not shown - about 450 residues with a human IgG1 Fc and changes]
light: B1 light
On to B9, for which, in experiment [1], the Fold change from hIL-2 (NK-92), pSTAT5 fixed conc. was found to be 22 fold. Also, the Fold change from hIL-2 (TF1 + IL-2Rβ), pSTAT5 fixed conc. in experiment [2] was determined as 1 fold.

B10: 1H3-hIgG1-L6-hIL-2 (R38E/I92G) (protein)
heavy: EVQLVESGGGLVQPGRSLKLSCAVSGFTFSDYAMAWVRQAPKKGLEWVATISYDGSRTYYRDSVKGRFTISRDNAKITLYLQMDSLRSEDTATYYCARHGSGYFDYWGQGVMVTVSS[not shown - about 450 residues with a human IgG1 Fc and changes]
light: B1 light
For B10, in experiment [1], the Fold change from hIL-2 (NK-92), pSTAT5 fixed conc. worked out at 22 fold. In addition, the Fold change from hIL-2 (TF1 + IL-2Rβ), pSTAT5 fixed conc. in experiment [2] was 1 fold.

B11: 1H3-hIgG1-L6-hIL-2 (R38E/D84E) (protein)
heavy: EVQLVESGGGLVQPGRSLKLSCAVSGFTFSDYAMAWVRQAPKKGLEWVATISYDGSRTYYRDSVKGRFTISRDNAKITLYLQMDSLRSEDTATYYCARHGSGYFDYWGQGVMVTVSS[not shown - about 450 residues with a human IgG1 Fc and changes]
light: B1 light
In the case of B11, the Fold change from hIL-2 (NK-92), pSTAT5 fixed conc. in experiment [1] was determined as 16 fold. Besides, the Fold change from hIL-2 (TF1 + IL-2Rβ), pSTAT5 fixed conc. in experiment [2] turned out to be 1 fold.

B12: 1H3-hIgG1-L6-hIL-2 (R38E/D84I) (protein)
heavy: EVQLVESGGGLVQPGRSLKLSCAVSGFTFSDYAMAWVRQAPKKGLEWVATISYDGSRTYYRDSVKGRFTISRDNAKITLYLQMDSLRSEDTATYYCARHGSGYFDYWGQGVMVTVSS[not shown - about 450 residues with a human IgG1 Fc and changes]
light: B1 light
Molecule B12 came in with a Fold change from hIL-2 (NK-92), pSTAT5 fixed conc. in experiment [1] of 20 fold. For the same molecule, the Fold change from hIL-2 (TF1 + IL-2Rβ), pSTAT5 fixed conc. in experiment [2] amounted to 1 fold.

B13: 1H3-hIgG1-L6-hIL-2 (R38E/I92M) (protein)
heavy: EVQLVESGGGLVQPGRSLKLSCAVSGFTFSDYAMAWVRQAPKKGLEWVATISYDGSRTYYRDSVKGRFTISRDNAKITLYLQMDSLRSEDTATYYCARHGSGYFDYWGQGVMVTVSS[not shown - about 450 residues with a human IgG1 Fc and changes]
light: B1 light
In experiment [1], B13 displayed a Fold change from hIL-2 (NK-92), pSTAT5 fixed conc. of 20 fold. Also, the Fold change from hIL-2 (TF1 + IL-2Rβ), pSTAT5 fixed conc. in experiment [2] was 1 fold.

B14: 1H3-hIgG1-L6-hIL-2 (R38E/I92Y) (protein)
heavy: EVQLVESGGGLVQPGRSLKLSCAVSGFTFSDYAMAWVRQAPKKGLEWVATISYDGSRTYYRDSVKGRFTISRDNAKITLYLQMDSLRSEDTATYYCARHGSGYFDYWGQGVMVTVSS[not shown - about 450 residues with a human IgG1 Fc and changes]
light: B1 light
Consider B14, for which the Fold change from hIL-2 (NK-92), pSTAT5 fixed conc. in experiment [1] came to 21 fold. Further, the Fold change from hIL-2 (TF1 + IL-2Rβ), pSTAT5 fixed conc. in experiment [2] is 1 fold.

B15: 1H3-hIgG1-L6-hIL-2 (R38E/I92F) (protein)
heavy: EVQLVESGGGLVQPGRSLKLSCAVSGFTFSDYAMAWVRQAPKKGLEWVATISYDGSRTYYRDSVKGRFTISRDNAKITLYLQMDSLRSEDTATYYCARHGSGYFDYWGQGVMVTVSS[not shown - about 450 residues with a human IgG1 Fc and changes]
light: B1 light
As to B15, the Fold change from hIL-2 (NK-92), pSTAT5 fixed conc. in experiment [1] worked out at 16 fold. Moreover, the Fold change from hIL-2 (TF1 + IL-2Rβ), pSTAT5 fixed conc. in experiment [2] stood at 1 fold.

B16: 1H3-hIgG1-L6-hIL-2 (R38E/D84M) (protein)
heavy: EVQLVESGGGLVQPGRSLKLSCAVSGFTFSDYAMAWVRQAPKKGLEWVATISYDGSRTYYRDSVKGRFTISRDNAKITLYLQMDSLRSEDTATYYCARHGSGYFDYWGQGVMVTVSS[not shown - about 450 residues with a human IgG1 Fc and changes]
light: B1 light
As to B16, the Fold change from hIL-2 (NK-92), pSTAT5 fixed conc. in experiment [1] came to 20 fold. The Fold change from hIL-2 (TF1 + IL-2Rβ), pSTAT5 fixed conc. in experiment [2] worked out at 2 fold.
